The source of these data is ChEMBL document CHEMBL4888484, “Replenishing the malaria drug discovery pipeline: Screening and hit evaluation of the MMV Hit Generation Library 1 (HGL1) against asexual blood stage Plasmodium falciparum ,using a nano luciferase reporter read-out” (2022).

About 540 (0.36%) of roughly 150,000 compounds showed an effect of 50% or more. The list shows a part of the results.

Broadly, the % Inhibition is the drop in the measured response relative to a control, in per cent.

The subject of the test is Plasmodium falciparum. In words: Primary screen in NF54 nanoGlo assay, in single point, at 2uM, 72h; a lower Z score goes with more inhibition. Type of test: functional, Erythrocyte. The following applies: timepoint 72 hour.
In the case of `Cc1c(NC(=O)COC(=O)c2cc(-c3cccc4ccccc34)nc3ccccc23)c(=O)n(-c2ccccc2)n1C`, the “% Inhibition” value was -9% and the Z score stood at 1.4.
In the same order, the values of `NC(=O)C1CCN(c2nc3cccnc3s2)CC1` are -7% and 0.83.
For `CC(N(C)CC(=O)NC(C)(C#N)C1CC1)C(C)(C)C` (stereo unspecified), the “% Inhibition” value is listed as 3% and the Z score was -0.36.
For `Cc1c(NS(C)(=O)=O)cccc1C(N)=O` the same measures were -11% and 0.99.
With `CCN([C@H]1CCN(c2ccccc2)C1=O)S(C)(=O)=O`, the “% Inhibition” value was -4% and the Z score turned out to be 0.48.
For `O=C(Nc1nnc(-c2cccnc2)o1)c1ccc(Cl)cc1Cl`, the “% Inhibition” value was 3% and the Z score is reported as -0.56.
For `COc1ccc(CN2C[C@@H](C(=O)Nc3ccc4nc(C)[nH]c4c3)CC2=O)cc1OC` the same measures were 2% and -0.24.
For `O=C(NCCCN1CCC[C@H](O)C1)c1ccc(-c2ccc3c(c2)OCO3)cc1` the same measures were -3% and 0.52.
In the same order, the values of `c1cnc2[nH]cc(-c3csc(CN4CCOCC4)n3)c2c1` are -8% and 1.18.
Consider `Cc1noc(C)c1S(=O)(=O)N1CC(C)OCC1C` (stereo unspecified), for which the “% Inhibition” value is -3% and the Z score is on record as 0.43.
For `O=C(N[C@@H]1CCCC(F)(F)[C@H]1O)C1(O)CCC1` the same measures were 1% and -0.09.
As to `CCOC(=O)Cn1ncc2ccc(N)cc21`, the “% Inhibition” value is listed as -3% and the Z score came to 0.56.
For `Cc1csc(CNC(=O)Cc2cnc3c(C)cccn23)n1` the same measures were -18% and 1.92.
In the same order, the values of `NC(=O)C1CCCN(C(=O)C2Cc3ccccc3C(=O)O2)C1` (stereo unspecified) are -8% and 1.4.
For `CC(C)c1nc2cc(CCC(=O)NC3CCCC3)ccc2[nH]1` the same measures were -13% and 1.83.
For `N[C@@H]1C[C@@H]2CC(c3nc(C4(c5ccccc5F)CC4)no3)C[C@@H]21` (stereo partly specified), the “% Inhibition” value was -1% and the Z score came to 0.16.
For `Cc1ncc(S(=O)(=O)NCCN2CC3CCC(C2)O3)s1` the same measures were 30% and -3.39.
For `Cc1ccc(CNC(=O)[C@H]2CCN(C)C(=O)C2)c2ccccc12` the same measures were 8% and -1.47.
In the case of `CCOC(=O)CC(=O)Nc1cc2c(cc1N1CCCC1)n(C)c(=O)n2C`, the “% Inhibition” value is listed as -8% and the Z score is recorded as 1.56.
Turning to `Cc1nn(C)cc1C(=O)NC[C@H]1CCCN(Cc2ccnn2C)C1`, the “% Inhibition” value came out at 6% and the Z score is listed as -1.18.
Take `CCOc1ccc(CNc2nc(NCc3ccc(OCC)cc3)n(C(=O)COc3ccccc3)n2)cc1`: the “% Inhibition” value is recorded as -2% and the Z score came to 0.25.
For `C=CCC(CC=C)C(=O)N1CC(O)(CC)C1` the same measures were -7% and 0.77.
For `Cc1ccc(CNC(=O)c2ccc3c(c2)N(C)[C@H]2CCCN2C3=O)cc1C` the same measures were -6% and 0.8.
In the same order, the values of `CCCNC(=O)N1CC[C@H](CCc2noc(C3CC3)n2)C1` are 5% and -0.75.
In the case of `O=S(=O)(c1cccc(C(F)(F)F)c1)N1CCCN(c2nc3cccnc3s2)CC1`, the “% Inhibition” value is reported as -11% and the Z score is given as 1.15.
For `Cc1cc(C)n(-c2ccc(=O)n([C@@H](C)C(=O)NCCc3ccc(S(N)(=O)=O)cc3)n2)n1`, the “% Inhibition” value is -12% and the Z score is reported as 2.28.
For `COc1ccc([C@@H](NC(=O)NCCC2(O)CCC2)C(F)(F)F)cc1` the same measures were -1% and 0.22.
For `CC(C)NC(=O)N[C@@H]1CC[C@H]2CCOc3ccccc3C(=O)N3CCN(C4COC4)C[C@H]3C(=O)NC[C@H]1O2` the same measures were 4% and -0.63.
In the same order, the values of `Cc1csc(S(=O)(=O)N2CCOC[C@@H](CN(C)C)C2)c1` are -12% and 1.59.
For `CCc1ncc(NS(=O)(=O)Cc2ccc(F)c(Cl)c2)cn1`, the “% Inhibition” value came to 0% and the Z score was 0.05.
In the same order, the values of `COCCN(CCNc1ncncc1Br)C1CC1` are -3% and 0.4.
For `C[C@@H](Cn1cccn1)OC(=O)c1cccnc1` the same measures were 0% and 0.07.
For `C=CCNCc1cc(Br)cc(OC)c1OCC` the same measures were -2% and 0.23.
With `C[C@H]1CN(Cc2cnc(NCc3ccccc3)nc2)CCN1C`, the “% Inhibition” value is recorded as -16% and the Z score worked out at 1.57.
In the same order, the values of `CC(NC(=O)C1CC(=O)N(C(C)C)C1)c1nnc2n1CCCCC2` (stereo unspecified) are -6% and 0.62.
For `CN(C)Cc1ccccc1Cn1cnc(-c2ccccc2)c1-c1c[nH]cn1` the same measures were 4% and -0.53.
For `COc1ccc(S(=O)(=O)N2CC[C@H](Oc3ncc(F)cn3)C2)cc1OC` the same measures were -8% and 1.22.
Regarding `CN(C)[C@@H](CNC1CC2(C1)CN(C(=O)OC(C)(C)C)C2)c1c(F)cccc1F`, the “% Inhibition” value is 4% and the Z score is -0.45.
In the same order, the values of `COc1ccccc1OC(=O)c1cc(-c2ccccc2)on1` are -7% and 0.87.
In the same order, the values of `CC(=O)N1CC[C@@H]2N(C(=O)C(=O)c3cccn3C)CCC[C@@]2(CO)C1` are -3% and 0.59.
For `Cc1ccc(C(=O)N(CC2CCN(CCc3ccccc3C)CC2)C2CCCC2)cn1` the same measures were -17% and 1.54.
For `Cc1ccc(C2=C[C@@H](c3ccccc3)n3nnnc3N2CC(=O)N2CCOCC2)cc1`, the “% Inhibition” value was -14% and the Z score turned out to be 1.45.
Consider `O=C(CCn1nc(C(=O)N2CCc3ccccc32)ccc1=O)N1CCN(C(=O)c2ccco2)CC1`, for which the “% Inhibition” value is 1% and the Z score was -0.1.
In the same order, the values of `Cc1cnccc1CN(C)C(=O)COc1cccnc1` are -9% and 1.26.
In the same order, the values of `COC[C@H]1CCCN(S(=O)(=O)c2cnc3c(cnn3C)c2)CC1` are -8% and 1.07.
For `CCc1c(-c2cccc(C(=O)NCC3(Cn4ccnc4C)CC3)c2)cnn1C` the same measures were -6% and 1.2.
As for `C[C@]1(C(=O)NCc2ccccc2)CCCN(S(=O)(=O)c2cccc3nsnc23)C1`, the “% Inhibition” value stood at 21% and the Z score is reported as -3.3.
For `CC(C)(C)c1ccc(C(=O)C(=O)Nc2ccn(CCc3ccncc3)n2)cc1` the same measures were -9% and 0.78.
On to `CCCc1nnsc1C(=O)NCCn1ccc2ccn(C)c2c1=O`, for which the “% Inhibition” value is given as -6% and the Z score is 1.12.
In the same order, the values of `[2H]C([2H])C12CC(NC(=O)N1CC)c1ccccc1O2` (stereo unspecified) are -6% and 0.71.
As to `COc1ccc(OC)c(S(=O)(=O)N2CCC3(CC2)CC3(F)F)c1`, the “% Inhibition” value stood at 22% and the Z score is given as -2.76.
For `Cc1ccncc1C(=O)N1CCN(C(=O)C(C)C)[C@@H]2CS(=O)(=O)C[C@@H]21` the same measures were -3% and 0.53.
For `O=S(=O)(C1CC1)N1CCCN(Cc2ccc(-c3ccn[nH]3)o2)CC1` the same measures were -13% and 1.32.
